Measurements published in publication PMC12136788.
This is one part of the list.

T1: UNK ZnF1-6 (called full-length) (human, UniProt Q9C0B0 30-357)
T1 sequence: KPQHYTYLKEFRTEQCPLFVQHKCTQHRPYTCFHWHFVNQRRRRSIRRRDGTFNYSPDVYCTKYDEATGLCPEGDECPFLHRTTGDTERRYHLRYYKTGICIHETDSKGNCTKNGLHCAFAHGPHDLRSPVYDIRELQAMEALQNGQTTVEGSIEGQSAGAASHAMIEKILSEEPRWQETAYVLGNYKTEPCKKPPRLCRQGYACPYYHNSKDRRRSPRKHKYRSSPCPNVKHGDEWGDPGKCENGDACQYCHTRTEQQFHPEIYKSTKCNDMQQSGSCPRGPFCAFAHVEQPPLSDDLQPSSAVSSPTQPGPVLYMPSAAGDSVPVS

B1: chr16:74449243:74449344:-|3pUTR|ENSG00000090863|msi1|FALSE|bound_elsewhere (ssRNA)
RNA: GGGAGUUCUACAGUCCGACGAUCUCUCCUAUCCUCCCAUCCUCCAGGCCUGUGGUGUGACUUCUGCCCCGAAGUUCCUACUAUAGUGAGUCAUCUGGGGAGAGGCCACUGAAAAGAGGCCUUCCCUUCCCAUUUCCUCCCCUGCAACAGAGGAUUGAGCAUCA
B2: chr12:293013:293114:-|CDS|ENSG00000073614|unk|total|mutant (ssRNA)
RNA: GGGAGUUCUACAGUCCGACGAUCACUAAAAGUGAAAGGAAAGGACUCUUCAGAGAAGAAACGGAAACGGAAGCCCGAAAAGGCCGAGCAACUUUUUGGAGAAGGAAAACAGAAGUCCAAGGAGUUAAAGAAAAUGGACAAACCCAACAGAGGAUUGAGCAUCA
B3: chr20:56370492:56370607:-|CDS|ENSG00000087586|unk|FALSE|unique (ssRNA)
RNA: GGGAGUUCUACAGUCCGACGAUCUCGGAUGCAUGAUGAGAAGGUGGAUCUCUGGAGCCUUGGAGUUCUUUGCUAUGAAUUUUUAGUUGGGAAGCCUCCUUUUGAGGCAAACACAUACCAAGAGACCUACAAAAGAAUAUCACGCAACAGAGGAUUGAGCAUCA
B4: chr16:21655520:21655610:+|3pUTR|ENSG00000197006|msi1_unk|FALSE|overlapping (ssRNA)
RNA: GGGAGUUCUACAGUCCGACGAUCUCUGUGUUCACAAUUACGUGAAGGGAGGACCCUUGGGGACCGCCAUUCUAAAUAUCAUGUAGGAAUUUAAAAAGCCAAAAUACUAAUUAUUUCUUUGUAGUGUGUAAAGGAAUGUUUUUACAACAGAGGAUUGAGCAUCA
B5: chr14:100882551:100882663:-|CDS|ENSG00000254656|unk|FALSE|unique (ssRNA)
RNA: GGGAGUUCUACAGUCCGACGAUCGCUCUCCCCAGACCCUAUCAUACCUCAGAACGUGAUUCACUUCAUCCUAAAGGACAUGCUAGGGUUCUUUGUGCUUUCUUAUGGCCAGGAAGUCCUGAUCUACUCAAUGAGUCAGGAGGACAACAGAGGAUUGAGCAUCA
B6: chr1:26281289:26281390:+|3pUTR|ENSG00000142669|msi1_unk|total|mutant (ssRNA)
RNA: GGGAGUUCUACAGUCCGACGAUCUCCCUCCUCUCUAAAUGCCGUCCCCUCUCCUCCAUCUAAAGGCAACAUUCCUUACCCAUCCGUCUCAGAAAUUGUCUUAAGCAACAGCCCCAAAUGCUGGCUGCCCCCAGCCAAGCAUUGCAACAGAGGAUUGAGCAUCA

These binders were tested against T1, UNK ZnF1-6 (called full-length) (assay: nsRBNS (natural sequence RNA bind-n-seq); RBNS binding buffer (assumed for nsRBNS): 25 mM Tris pH 7.5, 150 mM KCl, 3 mM MgCl2, 0.01% Triton X-100, 500 ug/ml BSA, 20 U/ml SUPERase-In, 4 C; UNK is unkempt and MSI1 is Musashi-1; names of the RNAs are library labels; protein concentration not given here; high values mean tight binding).
For B1, the binding signal was 0.706 enrichment R. B2 gave a binding signal of 0.581 enrichment R. B3 was tested, and the binding signal was 0.474 enrichment R. Work on B4 yielded a binding signal of 1.1 enrichment R. For B5, the binding signal was 0.485 enrichment R. With B6 the binding signal was 0.853 enrichment R.
